Experimental data as given in PubChem BioAssay AID504832 (National Center for Advancing Translational Sciences (NCATS), 2011).
Out of some 310,000 compounds screened, about 18,000 (5.8%) were called active. Inconclusive means that the source gave no clear call. Such entries were picked first, then a sample of the others. The call rests on the fitted dose curve; in most records, active means well fitted inhibition curve with a large enough effect; inconclusive means small, poorly fitted or top-dose-only effect, or another doubt; inactive means no such curve, though single readings can be large or run the other way. No potency is given beside an inconclusive call; the fits are too rough.

Test: Primary qHTS for delayed death inhibitors of the malarial parasite plastid, 48 hour incubation
Conditions: P. falciparum luciferase growth in erythrocytes; series mostly up to 28.7 µM; activity change, negative = inhibition: at the top concentration
Method in brief: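 Parasite viability was followed by luminescence of a genomically integrated firefly luciferase. Cultures held 0.1% parasitemia at 2% hematocrit (final), incubated under 5% CO2 at 37 C.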
On the % scale 0 is the no-effect control and ±100 the full control effect; potency means the concentration at half of the fitted maximal effect; tags describe the fitted curve by direction and shape.

Structure (SMILES)	activity change, negative = inhibition	Potency
O=c1c2ccccc2nc2c3ccccc3c(NCc3ccccn3)nn12	inactive: -12.9%	–
COc1ccccc1N1CCN(C(=O)CN2C(=O)c3cccc4cccc(c34)C2=O)CC1	–	inconclusive [inhibitor, partial curve, poor fit]
CCN(CC(=O)Nc1ccc(NC(C)=O)cc1)C(=O)c1cn(-c2ccccc2)nc1-c1cccs1	–	inconclusive [inhibitor, single point]
COc1ccccc1-n1nnnc1SCC(=O)Nc1oc(C)c2c(C)n[nH]c(=O)c12	inactive: 65.5%	–
Cc1ccc(C)c(N2CCN(C(=O)CN(C)S(=O)(=O)c3cnc[nH]3)CC2)c1	–	inconclusive [inhibitor, partial curve]
Cc1cc(C)n(Cc2ccc(NC(=O)c3nn(C)cc3[N+](=O)[O-])cc2)n1	inactive: -9.28%	–
COc1cccc(NC(=O)c2cccc(N3C(=O)C4C5C=CC(C5)C4C3=O)c2)c1 (configuration not stated)	–	inconclusive [inhibitor, partial curve, poor fit]
COc1cccc(C(=O)Nc2sc(C(C)C)cc2C(N)=O)c1OC	–	inconclusive [inhibitor, single point]
CCOCC(O)COc1ccc(NC(=O)CC[S+](C)C)cc1 (configuration not stated)	inactive: -14%	–
COc1ccc(NC(=O)CN(C)C(=O)/C=C/c2cn(-c3ccccc3)nc2-c2ccc(C)cc2)cc1	–	active: 9.28 µM
CC(NC(=O)Cn1cc(C(=O)C2CC2)c2ccccc21)c1ccccc1 (configuration not stated)	–	inconclusive [inhibitor, partial curve]
COc1ccc(NC(=O)c2ccc(Cl)c(S(=O)(=O)N3CCc4ccccc4C3)c2)cn1	–	active: 1.85 µM
CC(=O)N1CCN(c2ccc(C(N)=O)cc2[N+](=O)[O-])CC1	inactive: 15.6%	–
Cn1c(NC(=O)c2ccccc2NC(=O)C(C)(C)C)nc2ccccc21	–	inconclusive [inhibitor, partial curve]
CC[C@H]1c2[nH]c3ccccc3c2C[C@H]2C(=O)N(c3ccc(F)cc3)C(=O)N21	–	inconclusive [inhibitor, single point]
CC(C)C(NC(=O)c1ccc2c(c1)OCCO2)c1nc2ccccc2[nH]1 (configuration not stated)	inactive: 24%	–
COc1ccc2[nH]cc(C(O)CN3CCN(c4ccccc4)CC3)c2c1 (configuration not stated)	–	inconclusive [inhibitor, single point]
CC(=O)Nc1ccc(NC(=O)C(=O)NCC(c2ccco2)N2CCc3ccccc3C2)cc1 (configuration not stated)	–	inconclusive [inhibitor, partial curve, poor fit]
CCCCn1c(SCC(=O)Nc2ccc(OC)cc2)nc2ccc(N3CCOCC3)cc2c1=O	–	inconclusive [inhibitor, single point]
CCOC(=O)Nc1sc(C(=O)N(CC)CC)c(C)c1C(=O)OCC	–	inconclusive [inhibitor, full curve]
CCOc1cccc(C(=O)Nc2nnc(-c3ccco3)s2)c1	–	inconclusive [inhibitor, single point]

Structure (SMILES)	activity change, negative = inhibition	Potency
O=C(Cn1cnc([N+](=O)[O-])n1)N/N=C/c1ccccc1O	–	inconclusive [inhibitor, full curve, poor fit]
Oc1ccc(N=Cc2ccc(OCc3ccccc3)cc2)cc1	–	inconclusive [inhibitor, single point]
C[C@H](NC(=O)c1nc[nH]c1C(=O)N[C@@H](Cc1ccccc1)C(=O)OCc1ccccc1)C(=O)OC(C)(C)C	–	active: 7.38 µM
Cc1ccc(C)c(-c2nnc(NC(=O)CCS(=O)(=O)c3ccccc3)o2)c1	–	inconclusive [inhibitor, single point]
O=C(CSCc1cnn(-c2ccccc2)c1-n1cccc1)NCc1cccnc1	–	inconclusive [inhibitor, single point]
CCCC(O)(c1ccc(Br)cc1)C(CN1CCOCC1)c1ccc(Cl)cc1 (configuration not stated)	–	active: 2.33 µM
CC1=C(CC(=O)O)c2cc(F)ccc2C1=Cc1ccc(S(C)(=O)=O)cc1	–	inconclusive [inhibitor, partial curve, poor fit]
Cc1cc2c(ncn2Cc2ccccc2)c(NS(C)(=O)=O)c1C	–	inconclusive [inhibitor, single point]
O=C(c1ccc(OC2CCN(C/C=C/c3ccccc3)CC2)cc1)N1CCCCC1	–	inconclusive [inhibitor, single point]
Cc1cccc(-c2nc3c(c(SCC(=O)N4CCOCC4)n2)COC(C)(C)C3)c1	–	inconclusive [inhibitor, partial curve]
COc1ccccc1N(C)S(=O)(=O)c1ccc(C(=O)NCCc2ccc(F)cc2)cc1	–	inconclusive [inhibitor, partial curve]
Cc1ccccc1Cn1c(-c2ccc(=O)[nH]c2)nc2ccccc21	–	active: 11.7 µM
Cc1ccc(CN2CCSc3ccc(C(=O)NCC4CCCO4)cc32)cc1 (configuration not stated)	–	inconclusive [inhibitor, partial curve]
O=C(COc1ccccc1)NNC(=O)c1cc2ccccc2o1	inactive: 11.2%	–
COc1ccc(C(=O)NCC(=O)N/N=C/c2ccco2)cc1OC	inactive: 13.1%	–
N#Cc1cc([N+](=O)[O-])ccc1Oc1cccc(/C=N/NC(=O)c2cccc(Cl)c2)c1	inactive: -9.39%	–
S=C(NCc1ccco1)N1CCN(c2nc(-c3ccccc3)cs2)CC1	–	inconclusive [inhibitor, partial curve, poor fit]
CCOC(=O)CSc1nnc(CNc2ccccc2Cl)n1-c1ccccc1	–	inconclusive [inhibitor, single point]
CN(Cc1ccccc1)S(=O)(=O)c1ccc(OCC(=O)N2CCOCC2)cc1	–	inconclusive [inhibitor, full curve, poor fit]
CCCOC(=O)C1=C(C)NC(=O)NC1c1cc2c(cc1Br)OCO2 (configuration not stated)	–	inconclusive [inhibitor, partial curve, poor fit]
CCOC(=O)c1sc2nc(C)nc(NCc3ccccc3)c2c1C	–	inconclusive [inhibitor, single point]
